# Measured values reported in the supplement of paper PMC9334596.
# Values joined by “and” are separate entries in the source; they are usually repeats but may differ in a detail not shown here. Equal entries are not always repeated. Whole data set: some 5,300 compounds, median “PER2::LUC luminescence relative to vehicle control” near 0.96, cut for the highest 2% near 1.3. The list shows a part of the results.
# System: mPer2Luc MEF
# Assay: PER2::LUC luminescence relative to vehicle control (fold of vehicle); higher = higher PER2::LUC reporter signal
# Conditions: 10 µM
# Procedure, shortened: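 The value is PER2::LUC luminescence expressed as fold of vehicle control. Mouse embryonic fibroblasts carrying the mPer2Luc reporter were seeded at ~3000 cells per well in 384-well plates and grown in DMEM with 10% FBS at 37 °C and 5% CO2. Compounds from commercial libraries were added at 10 μM 48 h after seeding, and luminescence was read with the ONE-Glo luciferase assay system 24 h and 30 h after treatment, followed by an alamarBlue viability assay.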
SMILES,PER2::LUC luminescence (time after treatment 24 h),PER2::LUC luminescence (time after treatment 30 h)
COc1ccc(C(=O)c2ccc(O)cc2)c(O)c1O,1.01,0.975
COc1ccc(-c2coc3c(OC)c(OC)cc(O)c3c2=O)cc1,1.01,1.13
COc1c(OCCCN2CCOCC2)ccc2c1N=C(NC(=O)c1cnc(N)nc1)N1CCN=C21,0.663,0.509
CC(C)(Cc1nc(-c2ccc(O)cn2)no1)C(=O)NC1=C(C(=O)O)CCCC1,1.02,1.08
C/C(=N\NC(=O)c1cccc(S(=O)(=O)N2CCOCC2)c1)c1cc(Cl)ccc1O,0.477,0.389
COc1ccc2c(c1)OCC(Cc1ccc(OC)c(OC(C)=O)c1)C2=O (stereo unspecified),0.664,0.695
CC(=O)O[C@H]1C[C@@H](OC(C)=O)C(C)(C)C2C[C@@H](O)[C@]3(C)C(CC[C@@]4(C)[C@H](c5ccoc5)OC(=O)[C@H]5O[C@]543)[C@]21C (stereo partly specified),0.791,0.837
C=CC1=C(C(=O)O)N2C(=O)[C@@H](NC(=O)/C(=N\OCC(=O)O)c3csc(N)n3)[C@H]2SC1,0.929 and 0.486,1.07 and 0.797
COc1ccc(CNC(=O)Nc2ncc([N+](=O)[O-])s2)cc1,1.35,1.27
OCCOCCN1CCN(C(c2ccccc2)c2ccc(Cl)cc2)CC1 (stereo unspecified),0.983 and 0.881,0.806 and 0.773
CC(=O)Oc1c(C)c(C)c2c(c1C)CCC(C)(CCCC(C)CCCC(C)CCCC(C)C)O2 (stereo unspecified),1.02,1.06
CC(=O)Nc1ccc(O)cc1,0.846,0.81
CCOC(=O)C1=CCCC[C@H]1S(=O)(=O)Nc1ccc(F)cc1Cl,0.77,0.812
NC(=S)N/N=C/c1ncccc1N,0.249,0.278
Cc1cccc2c3c(ccc12)C1=C(C(=O)C3=O)C(C)CO1 (stereo unspecified),1.08,1.05
O=S(=O)(O)CCCS(=O)(=O)O,1.04,0.953
C=CCSCC(N)C(=O)O (stereo unspecified),1.12,0.997
Nc1nc(SCc2ccc([N+](=O)[O-])cc2)c2ncn([C@@H]3O[C@H](CO)[C@H](O)C3O)c2n1 (stereo partly specified),1.03,0.922
COc1ccc2[nH]c([S+]([O-])Cc3ncc(C)c(OC)c3C)nc2c1 (stereo unspecified),0.886,1.08
COc1nc(-c2ccc3c(c2)OCO3)n(-c2ccc(NC(=O)CSc3ccccc3)cc2)n1,1.11,1.11
O=C(Nc1ccc(-c2ccnc(Nc3ccc(N4CCOCC4)cc3)n2)cc1)C1CCCN1 (stereo unspecified),0.956,1.03
CCCCC(CC)CN=C(N)N=C(N)NCCCCCCNC(N)=NC(N)=NCC(CC)CCCC (stereo unspecified),0.48,0.483
CC1(C)CC(NC(=O)C(=O)Nc2ccc(Br)cc2)CC(C)(C)N1,0.875,0.928
COc1ccc(-c2ccccc2)cc1NS(=O)(=O)c1cc(Cl)cc(Cl)c1O,1.06,0.927
CCCc1nc(C(C)(C)O)c(C(=O)O)n1Cc1ccc(-c2ccccc2-c2nnn[nH]2)cc1,0.858,1.02
N#C/C(=C\c1ccc(O)c(O)c1)C(=O)NCCCNC(=O)/C(C#N)=C/c1ccc(O)c(O)c1,0.978,0.972

SMILES,PER2::LUC luminescence (time after treatment 24 h),PER2::LUC luminescence (time after treatment 30 h)
O=C(OCc1ccccc1)c1ccccc1,1.05,1.03
OC(CCN1CCCCC1)(c1ccccc1)C1CCCCC1 (stereo unspecified),0.787,0.923
Cc1ccc2c(Cl)cc(Cl)c(O)c2n1,0.989 and 0.694,1.03 and 0.911
N=C(N)N/N=C/c1c(Cl)cccc1Cl,1.08,1
Cc1cc(O)c(C=O)c2c1C(=O)Oc1c(COC(=O)/C=C/C(=O)O)c(O)c(C(=O)O)c(C)c1O2,0.996,0.92
CCC(=O)c1cc(-c2ccc(Cl)cc2)n(-c2ccc(S(N)(=O)=O)cc2)c1C,0.728,0.797
CCCCCCCCCC(=O)N[C@H]1[C@H](Oc2c3cc4cc2Oc2ccc(cc2Cl)[C@@H](O[C@@H]2O[C@H](CO)[C@@H](O)[C@H](O)[C@H]2NC(C)=O)[C@@H]2NC(=O)[C@H](NC(=O)[C@@H]4NC(=O)[C@H]4NC(=O)[C@@H](Cc5ccc(c(Cl)c5)O3)NC(=O)[C@H](N)c3ccc(O)c(c3)Oc3cc(O)cc4c3)c3ccc(O)c(c3)-c3c(OC4O[C@H](CO)[C@@H](O)[C@H](O)[C@@H]4O)cc(O)cc3[C@@H](C(=O)O)NC2=O)O[C@H](CO)[C@@H](O)[C@@H]1O (stereo partly specified),0.848,1.14
Brc1c(NC2=NCCN2)ccc2nccnc12,0.986,1.04
CN(C)CCOC(=O)COc1ccc(Cl)cc1,0.909 and 0.933,0.872 and 1.21
COc1ccc(C[C@@H]2c3cc(OC)c(OC)cc3CC[N@+]2(C)CCC(=O)OCCCCCOC(=O)CC[N@@+]2(C)CCc3cc(OC)c(OC)cc3[C@H]2Cc2ccc(OC)c(OC)c2)cc1OC,0.676,0.663
Nc1cc(-c2ccncc2)c[nH]c1=O,1.09 and 0.939,0.995 and 0.851
CCOC(=O)c1c(C)n(C)c2ccc(O)cc12,0.939,0.886
C[C@H]1C[C@@H]2[C@H]([C@@H](O)C[C@@]3(C)[C@H]2CC[C@]3(O)C(=O)COC(=O)CCC(=O)O)[C@@]2(C)C=CC(=O)C=C12,0.539,0.93
Fc1cc(-c2cccc3ncc(-c4cnn(C5CCNCC5)c4)nc23)cc(F)c1CN1CCOCC1,0.47,0.558
C=C[C@@H]1C[C@]1(NC(=O)[C@@H]1C[C@@H](Oc2ncc(OC)c3ccc(Cl)cc23)CN1C(=O)[C@@H](NC(=O)OC(C)(C)C)C(C)(C)C)C(=O)NS(=O)(=O)C1CC1,1.02,1.03
COC(=O)C(N)CS (stereo unspecified),0.369,0.764
CC(N)C12CC3CC(CC(C3)C1)C2 (stereo unspecified),0.89,0.93
O=C(CS(=O)(=O)Cc1ccccc1)N1CCOCC1,0.841,0.781
CN(C)CC[C@@H](c1ccc(Cl)cc1)c1ccccn1,0.885,0.755
COc1cc(OC)cc(C(=O)Nc2ccc(Cl)c(-c3nc4ccc(N(C)C)cc4[nH]3)c2)c1,0.977,1.35
CN(CCOc1ccc(CC2SC(=O)NC2=O)cc1)c1ccccn1 (stereo unspecified),1.12 and 1.05 and 0.707,0.939 and 0.982 and 0.92
CCN(c1cc(-c2ccc(CN3CCOCC3)cc2)cc(C(=O)NCc2c(C)cc(C)[nH]c2=O)c1C)C1CCOCC1,1.03 and 0.988,1.05 and 0.97
NC(N)=O,1.04,0.97
COC(=O)[C@@H]1OC(=O)C2OC23[C@@]1(C)CCC1[C@@]2(C)CCC(=O)C(C)(C)C2C[C@@H](OC(C)=O)[C@]13C (stereo partly specified),0.9,0.921
Cn1c([N+](=O)[O-])cnc1COC(N)=O,1.15,1.27
COCCOc1nc(N)c2[nH]c(=O)n(Cc3ccccc3)c2n1,1.21,1.13

SMILES,PER2::LUC luminescence (time after treatment 24 h),PER2::LUC luminescence (time after treatment 30 h)
O=C(O)/C(=C\c1c(C(=O)O)[nH]c2cc(Cl)cc(Cl)c12)c1ccccc1,1.4,1.34
CN(C)[C@@H]1C(O)=C(C(N)=O)C(=O)[C@@]2(O)C(O)=C3C(=O)c4c(O)ccc(Cl)c4[C@@H](O)[C@H]3C[C@@H]12,0.896,0.852
O=C(O)CC1CC(c2ccccc2)=NO1 (stereo unspecified),0.994 and 1.06,0.948 and 1.15
CCC1(c2c[nH]cn2)Cc2ccccc2C1,0.976,0.993
Cc1ccc2c(c1)C(=O)C1(O)CCN(c3ccccc3)C1=N2 (racemic),0.897,0.919
O=C(O)c1cc(N(Cc2ccccc2O)Cc2ccccc2O)ccc1O,0.973,1.02
CC(Oc1ccccc1)C(=O)N[C@@H]1C(=O)N2[C@@H]1SC(C)(C)[C@@H]2C(=O)O (stereo partly specified),1.02,0.902
CC(C)NC[C@H](O)c1ccc(O)c(O)c1,1.01,0.859
CC[C@@H]1/C=C(\C)C[C@H](C)C[C@H](OC)[C@H]2O[C@@](O)(C(=O)C(=O)N3CCCC[C@H]3C(=O)O[C@H](/C(C)=C/[C@@H]3CC[C@H](Cl)[C@H](OC)C3)[C@H](C)[C@@H](O)CC1=O)[C@H](C)C[C@@H]2OC,0.753,0.957
COc1ccc(-c2cc(C(F)F)nn2-c2ccc(S(N)(=O)=O)cc2)cc1F,0.823,0.766
Cc1cc(Nc2nc(N[C@@H](C)c3ncc(F)cn3)ncc2Cl)[nH]n1,0.994,1.11
COc1cc(C(=O)O[C@H]2C/C(C)=C/CC/C(C)=C/[C@H](O)[C@@H]2C(C)C)ccc1O,1.15,1.15
O=C(O)c1cc(O)c2ccc(Cl)cc2n1,0.934,0.805
C[C@@H]1CC[C@@]2(OC1)O[C@H]1C[C@H]3[C@@H]4CC[C@@H]5C[C@@H](O)CC[C@]5(C)[C@H]4CC[C@]3(C)[C@H]1[C@@H]2C,1.11,1.01
NCCS(=O)O,0.963,0.933
CCCCC(=O)N(Cc1ccc(-c2ccccc2-c2nnn[nH]2)cc1)[C@H](C(=O)O)C(C)C.CCOC(=O)[C@H](C)C[C@@H](Cc1ccc(-c2ccccc2)cc1)NC(=O)CCC(=O)O,0.991,0.904
OC[C@H]1O[C@@H](O[C@@H]2[C@@H](CO)OC(O)(CO)[C@H]2O)[C@H](O)[C@@H](O)[C@H]1O (mixture of isomers),1.12,1.37
CC[C@@H](Nc1c(Nc2cccc(C(=O)N(C)C)c2O)c(=O)c1=O)c1ccc(C)o1,0.95,0.961
N[C@@H](C(=O)N[C@@H]1C(=O)N2C(C(=O)O)=C(Cl)CS[C@H]12)c1ccccc1,0.976 and 0.773,0.899 and 0.773
CN1CCC[C@@H]1c1cccnc1.Cc1ccc(C(=O)O[C@H](C(=O)O)[C@@H](OC(=O)c2ccc(C)cc2)C(=O)O)cc1,0.873,0.978
COc1ccc(C(=O)NCc2ccc(OCCN(C)C)cc2)cc1OC,0.512,0.513
C=C1C2CC[C@@]3(C)[C@H](c4ccoc4)OC(=O)C[C@]13O[C@H]1CC(O)C(C)(C)C(CC(=O)OC)[C@@]21C (stereo partly specified),0.892,0.948
C=CC[C@H](N)C(=O)O,1.05,0.937
Brc1ccc([C@H]2CN3CCSC3=N2)cc1,1.11,0.858
COc1ccc(-c2coc3cc(O)ccc3c2=O)cc1S(=O)(=O)O,1,0.898
CCCCCCCCCCC1=C(C)C(=O)C(OC)=C(OC)C1=O,1.02,0.992
